The text below walks through data of the BET-seq Pho4 binding data (Le et al. 2018).

The list shows a part of the results. Values were computed here from the reads of four pooled replicates and scatter widely.

The assay addresses T1, Pho4 (S. cerevisiae) (UniProt P07270).
T1 sequence: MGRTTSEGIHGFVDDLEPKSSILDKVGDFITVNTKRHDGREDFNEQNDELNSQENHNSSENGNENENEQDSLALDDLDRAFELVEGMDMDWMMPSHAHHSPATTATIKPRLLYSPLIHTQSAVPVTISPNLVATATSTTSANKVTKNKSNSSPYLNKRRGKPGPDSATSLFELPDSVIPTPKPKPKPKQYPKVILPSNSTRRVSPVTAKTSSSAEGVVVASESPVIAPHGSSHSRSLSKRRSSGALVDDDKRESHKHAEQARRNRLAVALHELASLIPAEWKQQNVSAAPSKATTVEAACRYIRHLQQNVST
The assay is described as follows: relative binding free energy (BET-seq); higher = weaker binding. Particulars: reference: library average.
GTAGTCACGTGAGTTG: the “relative binding free energy” value is 0.26 kcal/mol.
Turning to TCTAGCACGTGTAAGG, the “relative binding free energy” value was -0.12 kcal/mol.
Then AAATCCACGTGTGTTG, with 0.1 kcal/mol; and CGGTTCACGTGTGACT, with 0.41 kcal/mol; and AAGGTCACGTGAAATG, with 0.36 kcal/mol.
For ATTCGCACGTGGTTGG, the “relative binding free energy” value was -0.15 kcal/mol.
For the sequence TTTCGCACGTGATGTG, the “relative binding free energy” value was determined as 0.09 kcal/mol.
The figure for TTTGGCACGTGTGCAG is -0.06 kcal/mol; for TATGACACGTGGGGGA it is -0.07 kcal/mol; for GGGGGCACGTGACGCT it is 0 kcal/mol.
Turning to TGTACCACGTGTGTAT, the “relative binding free energy” value is -0.12 kcal/mol.
Regarding GTATTCACGTGTCAGG, the “relative binding free energy” value turned out to be 0.27 kcal/mol.
As to TTTGGCACGTGTGATG, the “relative binding free energy” value is 0 kcal/mol.
On to GGTTACACGTGTGCGT, for which the “relative binding free energy” value is 0.18 kcal/mol.
Then CCTGTCACGTGGGGCG, with 0.03 kcal/mol; and CGTAACACGTGAGTTT, with 0.25 kcal/mol; and AAGTGCACGTGACTGT, with 0.15 kcal/mol.
TTTTTCACGTGTGTTG: the “relative binding free energy” value came out at 0.3 kcal/mol.
AGGGTCACGTGCAAGG: the “relative binding free energy” value stood at 0.07 kcal/mol.
In the case of GTTTACACGTGGGTGC, the “relative binding free energy” value is 0 kcal/mol.
As for GCAGACACGTGGGGAG, the “relative binding free energy” value was -0.14 kcal/mol.
Regarding TTAATCACGTGTAAAT, the “relative binding free energy” value turned out to be 0.38 kcal/mol.
Regarding CTGTTCACGTGCATGG, the “relative binding free energy” value worked out at 0.23 kcal/mol.
Then GATATCACGTGTTCGT, with 0.23 kcal/mol; and AGGGACACGTGGTGCT, with -0.12 kcal/mol; and CAGCGCACGTGAGGGT, with 0.24 kcal/mol.
Then TTAATCACGTGCTTGA, with 0.22 kcal/mol; and TATGTCACGTGGTTTT, with 0.15 kcal/mol.
Take ATGGGCACGTGTGTTA: the “relative binding free energy” value is -0.08 kcal/mol.
For the sequence TTTGGCACGTGGTATC, the “relative binding free energy” value is -0.15 kcal/mol.
Then ATGTTCACGTGTAAAT, with 0.29 kcal/mol; and TGTTGCACGTGTTTTG, with 0.06 kcal/mol; and TGGGTCACGTGCGATG, with 0.15 kcal/mol.
The figure for AGAGTCACGTGTTGTT is 0.21 kcal/mol; for GTAGTCACGTGTGCGA it is 0.07 kcal/mol.
In the case of GCGGACACGTGTGGGA, the “relative binding free energy” value is -0.07 kcal/mol.
In the case of AAGTGCACGTGGATTT, the “relative binding free energy” value was -0.04 kcal/mol.
Consider TCGGACACGTGTTTAT, for which the “relative binding free energy” value is 0.09 kcal/mol.
On to GTGAGCACGTGCAGTG, for which the “relative binding free energy” value is -0.03 kcal/mol.
GTGAACACGTGGTCGA: the “relative binding free energy” value came to 0.09 kcal/mol.
The figure for TGAGTCACGTGGAGTC is 0.2 kcal/mol; for TTGGGCACGTGTGCGT it is -0.12 kcal/mol; for CTTGGCACGTGGGCGA it is -0.24 kcal/mol.
Take ATCGACACGTGGGTGT: the “relative binding free energy” value was -0.16 kcal/mol.
Then GGGTGCACGTGGTGCT, with -0.14 kcal/mol.
With TTAGGCACGTGGAGTT, the “relative binding free energy” value is -0.04 kcal/mol.
Take TTCGTCACGTGAATTT: the “relative binding free energy” value is 0.45 kcal/mol.
TCAGGCACGTGTGTTT: the “relative binding free energy” value was -0.02 kcal/mol.
As to GTAGGCACGTGAAAAT, the “relative binding free energy” value was 0.33 kcal/mol.
ATGGTCACGTGTTGGC: the “relative binding free energy” value was 0.23 kcal/mol.
Take TCTGGCACGTGGTTCG: the “relative binding free energy” value is -0.07 kcal/mol.
Then AATGACACGTGTTGGA, with 0 kcal/mol; and GTGTTCACGTGTCTAA, with 0.16 kcal/mol.
Take TCAATCACGTGTTTGT: the “relative binding free energy” value amounted to 0.08 kcal/mol.
Then TTAGGCACGTGGATGA, with -0.13 kcal/mol.
For the sequence TTTGACACGTGTGAAA, the “relative binding free energy” value was found to be 0.11 kcal/mol.
In the case of ATTAGCACGTGACTGG, the “relative binding free energy” value was found to be 0.06 kcal/mol.
The figure for CGAGTCACGTGTGGGG is 0.08 kcal/mol; for ATGAGCACGTGTGCTT it is -0.16 kcal/mol; for TTGTTCACGTGTGCGG it is 0.25 kcal/mol.
Turning to AAGACCACGTGTGTGT, the “relative binding free energy” value was determined as 0.03 kcal/mol.
TGTTGCACGTGAAGTG: the “relative binding free energy” value stood at 0.23 kcal/mol.
GGTAGCACGTGTGCGG: the “relative binding free energy” value was -0.03 kcal/mol.
Then GGAATCACGTGTGGTT, with 0.3 kcal/mol; and GGTAACACGTGGGTGT, with -0.12 kcal/mol.
In the case of AGTTGCACGTGGCGGC, the “relative binding free energy” value is -0.08 kcal/mol.
With TTGAGCACGTGTGTAC, the “relative binding free energy” value is -0.02 kcal/mol.
With GTAGACACGTGGACGG, the “relative binding free energy” value was -0.03 kcal/mol.
In the case of AGGCGCACGTGTGGCT, the “relative binding free energy” value is -0.15 kcal/mol.
Regarding CTTTGCACGTGTTTTT, the “relative binding free energy” value came to 0.15 kcal/mol.
Turning to GTTTTCACGTGAATAA, the “relative binding free energy” value was determined as 0.5 kcal/mol.
Regarding GGGAGCACGTGGCAGG, the “relative binding free energy” value is -0.24 kcal/mol.
As to TAGAACACGTGGAGGG, the “relative binding free energy” value is -0.09 kcal/mol.
As for GTTTTCACGTGTGCTT, the “relative binding free energy” value was 0.29 kcal/mol.
ATGTTCACGTGTTGGA: the “relative binding free energy” value is 0.23 kcal/mol.
In the case of TGTTACACGTGCAGGG, the “relative binding free energy” value came to 0.11 kcal/mol.
The figure for GAAGACACGTGGGCGG is -0.21 kcal/mol.
For GTAGTCACGTGATTCT, the “relative binding free energy” value worked out at 0.29 kcal/mol.
The figure for GGCGGCACGTGGCAGT is -0.15 kcal/mol; for GTCTTCACGTGGGTTT it is 0.29 kcal/mol.
For the sequence ACTGTCACGTGGTATT, the “relative binding free energy” value is -0.02 kcal/mol.
Regarding AGTAGCACGTGGATAG, the “relative binding free energy” value was -0.05 kcal/mol.
With TGGTCCACGTGTGCGT, the “relative binding free energy” value turned out to be 0.02 kcal/mol.
In the case of ATTCGCACGTGGTTGC, the “relative binding free energy” value is -0.07 kcal/mol.
As for TCTGGCACGTGTTGAT, the “relative binding free energy” value is -0.13 kcal/mol.
Regarding GCTGGCACGTGGGTTA, the “relative binding free energy” value was -0.18 kcal/mol.
In the case of GTTAGCACGTGCGCGT, the “relative binding free energy” value was -0.23 kcal/mol.
Consider GGGTTCACGTGGTAAT, for which the “relative binding free energy” value is 0.27 kcal/mol.
AAAGGCACGTGTAGGA: the “relative binding free energy” value was -0.15 kcal/mol.
As for GGGTTCACGTGAAGAG, the “relative binding free energy” value came out at 0.37 kcal/mol.
On to CTGGGCACGTGTGAGT, for which the “relative binding free energy” value was -0.02 kcal/mol.
Then TGACGCACGTGGGTCG, with -0.31 kcal/mol.
Turning to GTGTTCACGTGTGAAG, the “relative binding free energy” value was determined as 0.22 kcal/mol.
Then GCAGTCACGTGGATGG, with -0.01 kcal/mol; and TACGGCACGTGGGGGT, with -0.24 kcal/mol.
Regarding TTGTCCACGTGGGTGC, the “relative binding free energy” value was -0.06 kcal/mol.
Then TCTTACACGTGAGGGT, with 0.32 kcal/mol; and GGAGACACGTGAGGGA, with 0.28 kcal/mol; and TAATCCACGTGGTTGT, with -0.1 kcal/mol.
Consider GAGTACACGTGTAATT, for which the “relative binding free energy” value was 0.41 kcal/mol.
Then TTTCACACGTGCGGGT, with -0.01 kcal/mol.
ATTCGCACGTGGCGTT: the “relative binding free energy” value was -0.06 kcal/mol.
In the case of ACGGGCACGTGTAGGG, the “relative binding free energy” value was -0.12 kcal/mol.
As for GCGGGCACGTGTGGAA, the “relative binding free energy” value stood at 0.07 kcal/mol.
The figure for TATTGCACGTGGTAAG is -0.01 kcal/mol; for GTAATCACGTGGTAGA it is 0.1 kcal/mol.
As to TAAGACACGTGGGGGT, the “relative binding free energy” value is -0.1 kcal/mol.
In the case of TATGGCACGTGCATTA, the “relative binding free energy” value was -0.18 kcal/mol.
For TTTTGCACGTGTACGG, the “relative binding free energy” value amounted to 0.07 kcal/mol.
Turning to GGAAGCACGTGGAATG, the “relative binding free energy” value was -0.03 kcal/mol.
Take GGGTGCACGTGATTCG: the “relative binding free energy” value worked out at 0.27 kcal/mol.
CGTTACACGTGTGAGG: the “relative binding free energy” value was determined as 0.21 kcal/mol.
As for ATAACCACGTGTGGGG, the “relative binding free energy” value was -0.09 kcal/mol.
As for ATGCTCACGTGGTGGT, the “relative binding free energy” value was 0.11 kcal/mol.
In the case of GGGGACACGTGGTTAG, the “relative binding free energy” value was 0.13 kcal/mol.
